In this assay the test system is Plasmodium falciparum. Nature of the assay: Primary screen in NF54 nanoGlo assay, in single point, at 2uM, 72h; a lower Z score goes with more inhibition. To be noted: timepoint 72 hour. Type of assay: functional, Erythrocyte.

“And” between values parts separate entries of the source, which are not always exact repeats. Identical values can stand only once. In all, about 150,000 compounds went through this assay and about 540 (0.36%) showed an effect of 50% or more. Some of the results follow.

For the molecule `NC(=O)c1c[nH]c(C(=O)NCc2[nH]nc3c2CCCC3)c1`, the “% Inhibition” value is -14% and the Z score is reported as 2.12.

Take `O=C(CCc1nnc2c3cc(-c4ccc(Cl)cc4)nn3ccn12)NCc1ccccc1`: the “% Inhibition” value was -9% and the Z score is recorded as 1.3.

Turning to `COc1ccc(-n2cc3c(c2-c2ccccc2)c(=O)n(-c2ccccc2)n3C)cc1`, the “% Inhibition” value was -10% and the Z score is recorded as 1.33. `C[C@H]1CN(C(=O)C2(C#N)CCCC2)c2ccccc2CN1C(=O)OC(C)(C)C`: the “% Inhibition” value came out at 0% and the Z score is -0.05. In the same order, the values of `Cc1ccc(Cl)cc1NC(=O)C1CCCN(S(=O)(=O)c2ccc3c(c2)NC(=O)C(C)O3)C1` (configuration not stated) are -8% and 1.21. The like results for `Cc1nc(C2CCCN2C2CCN(CC(F)(F)F)C2=O)no1` (configuration not stated) were, in that order, -15% and 1.65. In the same order, the values of `CC(=O)N1Cc2ccccc2C[C@H]1C(=O)N(C)Cc1cccc(=O)[nH]1` are 6% and -0.83. Turning to `CC(=O)Nc1ccc(NC(=O)CCc2ccc3ccn(C)c3c2)cc1`, the “% Inhibition” value is -4% and the Z score turned out to be 0.5.

For the molecule `COc1ccc(C2CCN(C(=O)[C@H](N)c3ccccc3C)CC2)nc1`, the “% Inhibition” value is on record as -5% and the Z score is listed as 0.7.

Consider `Cc1n[nH]c([C@H]2CCCN(Cc3nonc3C)C2)n1`, for which the “% Inhibition” value came to 1% and the Z score is reported as -0.08. The like results for `Cc1cncc(-c2ccc(N3CCCC3=O)c(C)c2)c1` were, in that order, -11% and 2.14. On to `CCCc1occc1C(=O)NS(=O)(=O)c1c(C)nn(C)c1OC`, for which the “% Inhibition” value was found to be 7% and the Z score is -0.59. The like results for `Cc1ccc(F)cc1S(=O)(=O)N(CCCN1CCOCC1)[C@H]1CCCNC1` were, in that order, 4% and -0.47. As to `Cc1ccc2c(c1)[C@@H](NC(=O)C(C)(C)c1c(C)noc1C)CCC2`, the “% Inhibition” value is on record as -7% and the Z score is 1.3.

`Cc1ccnc(NCCc2csc(N3CCCC3)n2)n1`: the “% Inhibition” value was 15% and the Z score was -1.7. Regarding `COC[C@@H]1CN(Cc2ccc(F)c(OC)c2)C[C@H]1c1nc(C)no1`, the “% Inhibition” value is on record as -5% and the Z score is 0.81. For `COc1cc2c(cc1OC)C(NC(=O)[C@H](C)n1cnnn1)CC2` (some centres not stated), the “% Inhibition” value is reported as -2% and the Z score stood at 0.25. For the molecule `Cn1nccc1C(=O)N1CCC(F)(F)[C@@H](COCc2ccccc2)C1`, the “% Inhibition” value was 1% and the Z score is recorded as -0.22. The like results for `CC(C)(C)OC(=O)N1CCN(C(=O)CC#N)CCN(C(=O)CC#N)CC1` were, in that order, -9% and 1.57.

Consider `CCC(=O)NCCn1nc(C(F)(F)F)c2c1CCOC2`, for which the “% Inhibition” value stood at 0% and the Z score was -0.05. For `CCCC(CCC)C(=O)NCc1ccc[nH]1`, the “% Inhibition” value is -3% and the Z score stood at 0.46. In the same order, the values of `Cc1nnc(N2CC(C)(C)[C@H]2c2nccn2C)nc1C` are -8% and 0.96. Take `Cc1cccc(NC(=O)c2ccc(COc3cccc4ccccc34)o2)n1`: the “% Inhibition” value is given as -21% and the Z score amounted to 2.85. Regarding `CC1=C(c2ccccc2)[C@H]1C(=O)N1CCC(c2nccn2CC2CCC2)CC1`, the “% Inhibition” value is on record as 1% and the Z score was -0.14. Consider `O=C(c1cc[nH]n1)N1CCC(n2c(=O)[nH]c3ccccc3c2=O)CC1`, for which the “% Inhibition” value was -16% and the Z score came out at 2.06. As for `O=C(NCc1nnc2n1CC[C@H](C(F)(F)F)C2)Nc1ccccc1`, the “% Inhibition” value is listed as -10% and the Z score was 1.98.

On to `N[C@H]1CCN(C(=O)CCc2nc3cc(Br)ccc3s2)C1`, for which, where the note is “2 µM”, the “% Inhibition” value is -6% and 4%. Turning to `Cn1nc(C(=O)N2CCc3nc(NC(=O)c4ccccn4)sc3C2)ccc1=O`, the “% Inhibition” value is listed as -13% and the Z score amounted to 2.51. In the same order, the values of `CN1CCN(CCC(=O)Nc2ccc(F)cc2)CC12CCCCC2` are -16% and 2.55. For the molecule `O=C(NCc1ccccc1)c1coc(CN2CCN(Cc3ccc(F)cc3F)CC2)n1`, the “% Inhibition” value is given as -9% and the Z score is given as 1.34. In the same order, the values of `O=C(N[C@H]1CCCn2ncnc21)c1cc2n(n1)CCC2` are 1% and -0.08. In the same order, the values of `COc1ccc(CCn2cc(C(N)=O)cn2)cc1` are -12% and 1.05. In the case of `O=C(CNC(=O)[C@H]1CCS(=O)(=O)C1)Nc1cccc2ccccc12`, the “% Inhibition” value was -10% and the Z score stood at 1.31. As for `CCc1nc(CNC(=O)c2ccc(-c3ccc(OC)c(OC)c3)cc2)no1`, the “% Inhibition” value was found to be 0% and the Z score was -0.04. With `Cc1cc(C)n(C)c(=O)c1C(=O)NCc1cccnc1N1CCCN(C)CC1`, the “% Inhibition” value is -12% and the Z score is reported as 1.13. With `CN(CCNc1ncc(F)c(N2CCOCC2)n1)S(C)(=O)=O`, the “% Inhibition” value is on record as 7% and the Z score was -0.96.

On to `CC(OC(=O)C1CCCN1S(C)(=O)=O)C(=O)Nc1ccccc1C#N` (configuration not stated), for which the “% Inhibition” value is on record as -12% and the Z score came to 1.35. The like results for `COc1ccc(C2(c3nc(C4CCCC4)nn3CC(=O)O)CC2)cc1` were, in that order, 6% and -0.85.

For the molecule `CC(C)C(=O)N1C[C@H](NC(=O)OC(C)(C)C)[C@@H](c2cnn(C)c2)C1`, the “% Inhibition” value is -2% and the Z score came out at 0.31. The like results for `c1ccc(-c2ccc3occc3c2)c(CN2CCOCC2)c1` were, in that order, 8% and -0.98.

Take `O=C(C[n+]1ccccc1-c1nc(-c2ccc(Cl)cc2)cs1)c1ccccc1`: the “% Inhibition” value is listed as -7% and the Z score stood at 1. For the molecule `O=S(=O)(Oc1cccc(-n2ccnc2)c1)c1cccnc1`, the “% Inhibition” value is on record as -4% and the Z score amounted to 0.6.

Turning to `C#CCCC1(CCC(=O)N2CC[C@H](COc3ccccc3)C2)N=N1`, the “% Inhibition” value is reported as 3% and the Z score is -0.32. In the same order, the values of `CC[C@H](C)NS(=O)(=O)c1cc(-c2cnc(C)o2)ccc1C` are -7% and 1.26. The like results for `Cc1nc2ccc(NC(=O)c3ccc(CN4CCOCC4)cc3)cc2s1` were, in that order, -14% and 1.16. For `Cc1oc(-c2ccccc2F)nc1C(=O)N1CCCC1`, the “% Inhibition” value is -14% and the Z score turned out to be 1.43. Regarding `Cc1nc(C)c(C(=O)NCc2ccnc(-c3cnn(C)c3)c2)s1`, the “% Inhibition” value was -9% and the Z score is reported as 1.37. In the same order, the values of `CCC(C)(C)NCc1ccc(OC)c(OC)c1` are -4% and 0.41. The like results for `CCOc1ccc2c(c1)N(C(=O)[C@H](Cc1ccccc1)N1C(=O)c3ccccc3C1=O)C(C)(C)C=C2C` were, in that order, -7% and 0.76.

In the case of `C=CCNC(=O)N[C@H]1CCN2C(=O)c3ccccc3NC(=O)[C@@H]2C1`, the “% Inhibition” value is listed as -3% and the Z score is listed as 0.35. The like results for `Cn1cc(CCc2nc(-c3ccsc3)no2)cn1` were, in that order, 1% and -0.18. The like results for `Cc1cc(-c2ncccc2NC(=O)NC2C(=O)NCCC2C)cs1` (configuration not stated) were, in that order, -6% and 0.91. In the same order, the values of `O=S(=O)(CC1CCOCC1)N1CC2COCC(C1)O2` are 0% and 0.02. Consider `Oc1cc(CN2CCN(c3cc(C4CC4)n[nH]3)CC2)nc(-c2ccccc2)n1`, for which the “% Inhibition” value is given as -5% and the Z score was 0.75.

Values taken from ChEMBL document CHEMBL4888484, “Replenishing the malaria drug discovery pipeline: Screening and hit evaluation of the MMV Hit Generation Library 1 (HGL1) against asexual blood stage Plasmodium falciparum ,using a nano luciferase reporter read-out” (2022).
